# Data reported in PubChem BioAssay AID1508623 (National Center for Advancing Translational Sciences (NCATS), 2021).
# In all, about 48,000 compounds went through this assay and about 450 (0.94%) were called active. Another 19% or so got no clear call; they are omitted. The call rests on the fitted dose curve; in most records, active means well fitted inhibition curve with a large enough effect; inconclusive means small, poorly fitted or top-dose-only effect; inactive means no such curve, though single readings can be large or run the other way. This is one part of the list.
# Test: Primary qHTS for Identification of Small Molecule Inhibitors of Huntingtin Promoter Activity; further: nearly all actives have a fitted effect of over 50% in size
# Details: HEK293 HTT promoter firefly luciferase reporter (activity 0% = vehicle and -100% = no light), 24 h; series mostly up to 57.5 µM; activity change, negative = inhibition: at the top concentration
# Procedure, shortened: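 Quantitative HTS used concentration series of up to 57.5 uM final on HEK293 luciferase reporter cells, 24 h at 37 degrees C. Readout was Dual-Glo firefly luminescence.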
# Potency means the concentration at half of the fitted maximal effect.
Structure (SMILES),"activity change, negative = inhibition",Potency
O=C(c1cnc2c(c1)COc1ccc(Cl)cc1-2)c1ccccc1O,inactive: -4.91%,–
CCOc1ccc(NC(=O)CCCOc2cc(=O)n(C)c3ccccc23)cc1,inactive: -5.38%,–
Clc1ccccc1CSc1nnc(C2CCNCC2)o1,inactive: -8.65%,–
Cc1ccc2nc(-c3ccc(C)o3)c(Nc3ccc4c(c3)OCCO4)n2c1,inactive: 34.2%,–
COc1ccc(NC(=O)c2oc3ccccc3c2NC(=O)Cc2coc3ccc(C)cc23)cc1,inactive: 7.69%,–
CCOc1cc(CNC(=O)c2ccc3nc(C(C)C)oc3c2)cc(OCC)c1OCC,inactive: -20.8%,–
CCCCN(CC)C(=O)c1nn(-c2ccc(OC)cc2)c(=O)c2c1c1ccccc1n2C,inactive: -9.88%,–
Cc1ccc(C)c(N2CCN(C(=O)c3cc4c(=O)oc5ccccc5c4s3)CC2)c1,inactive: -4.97%,–
O=C(Cn1c(=O)n(-c2ccccc2)c(=O)c2ccc(C(=O)NCc3ccc4c(c3)OCO4)cc21)Nc1ccc(Br)cc1,inactive: -28.4%,–
O=C(CSc1nc2ncccc2o1)Nc1cccc(C(F)(F)F)c1,inactive: 20.7%,–
O=C(c1ccc(Nc2nccc(-c3cc4ccccc4s3)n2)cc1)N1CCC(N2CCCC2)CC1,inactive: -22%,–
Cc1nc(SCC(=O)Nc2nsc(-c3ccc(C(C)(C)C)cc3)n2)c2c3c(sc2n1)CCCC3,inactive: -21.6%,–
Nc1ncnc2c1ncn2[C@@H]1O[C@H](CO)[C@@H](O)[C@H]1O,inactive: -8.19%,–
CCN(C(=O)CSc1nc(-c2ccccc2)no1)c1ccccc1,inactive: -9.15%,–
Cc1ccc2occ(-c3cc(-c4ccc(F)cc4)nc4c3COc3ccc(F)cc3-4)c(=O)c2c1,inactive: -11.5%,–
Cc1ccccc1CSc1nc(-c2cccc(F)c2)nc2c1Cc1c(CO)cnc(C)c1O2,inactive: -8.73%,–
COc1ccc(OC)c(CNC(=O)c2nn(C)c3c2CS(=O)(=O)c2ccccc2-3)c1,inactive: -11.5%,–
CN(C)C(=O)c1ccc2c(c1)N(CC(=O)NCc1ccccc1Cl)C(=O)C1CCCCN21 (stereo unspecified),inactive: -2.45%,–
CC(=O)Nc1ccc(Nc2ncnc3c2cnn3C)cc1,inactive: 44.4%,–
CCOc1ccccc1CNC(=O)c1oc2c(c1C)-c1[nH]ncc1CC2,inactive: 2.78%,–
CC1CCN(c2ncnc3c2c(-c2ccccc2)cn3-c2ccc(Br)cc2)CC1,inactive: -14.4%,–

Structure (SMILES),"activity change, negative = inhibition",Potency
CCCN(CCC)C(=O)Cn1c(=O)n(CCCCCC(=O)NCc2ccc3c(c2)OCO3)c(=O)c2sccc21,inactive: 1.29%,–
Cc1ccc(C)n1-c1nnc(N2CCCC(C(=O)Nc3ccccc3Br)C2)s1 (stereo unspecified),inactive: -15.8%,–
CCOC(=O)c1c(NC(=O)c2cc(OC)c(OC)c(OC)c2)sc2c1CCCC2,inactive: 8.67%,–
COc1ccccc1-c1noc(CCCC(=O)Nc2cccc(C(F)(F)F)c2)n1,inactive: -13.1%,–
O=C(CN1C(=O)C2(SCC(=O)N2c2cccc(Cl)c2)c2ccccc21)NCc1ccccc1 (stereo unspecified),inactive: -27%,–
COc1ccc(-c2cn3nc(N4CCC(C(=O)Nc5cc(Cl)ccc5C)CC4)sc3n2)cc1,inactive: 4.27%,–
C[n+]1cc2c3c(ccc2c2ccc4cc5c(cc4c21)OCO5)OCO3,–,active: 2820 nM
COc1ccc(NC(=O)CCCn2c(=O)c3cccn3c3cccnc32)cc1Cl,inactive: -4.93%,–
O=C(CCCCCn1c(=O)c2sccc2n(CC(=O)Nc2cc(C(F)(F)F)ccc2Cl)c1=O)NCc1ccccc1Cl,inactive: -25.3%,–
CCc1cccc(-n2c(=O)c3cccnc3n2CC(=O)NCc2ccc(C)cc2)c1,inactive: -7.15%,–
Cc1ccc(NC(=O)Cn2cnc3onc(-c4ccc(F)cc4)c3c2=O)c(Cl)c1,inactive: -19.2%,–
Cc1cccc(CC(=O)Nc2ccc3nc(N4CCC(C)CC4)cc(C)c3c2)c1,inactive: -28%,–
CC1=C(C(=O)Nc2cc(Cl)ccc2C)C(c2sccc2C)n2ncnc2N1 (stereo unspecified),inactive: 0.373%,–
Cc1cc(C)c(NC(=O)Cn2c(=O)n(CCC(=O)NCc3ccccc3Cl)c(=O)c3sccc32)c(C)c1,inactive: -11%,–
CSc1ncc(C(=O)NCc2ccc(C)cc2)c(C)n1,inactive: -6.71%,–
CC(C)(C)c1ccc2c(c1)N(CC(=O)NCCCN1CCN(c3ccccc3F)CC1)C(=O)CO2,inactive: -29.3%,–
CC(C)N(C(=O)Cn1cc(S(=O)(=O)Cc2ccc(Br)cc2)c2ccccc21)C(C)C,inactive: -11.7%,–
CC1CCN(S(=O)(=O)c2ccc3c(c2)N(CC(=O)NCCCN2CCCCC2)C(=O)CS3)CC1,inactive: -12.9%,–
Cc1ccc(CNC(=O)c2cc(-c3ccc(C)cc3)nc3n[nH]c(-c4cccc([N+](=O)[O-])c4)c23)cc1,inactive: -8.91%,–
CCOc1ccc(S(=O)(=O)NCCc2c(C)[nH]c3c(Cl)cccc23)cc1C,inactive: -18.7%,–
Cc1ccc(-n2c(COCC(=O)O)nc3cccnc32)cc1,inactive: -22%,–

Structure (SMILES),"activity change, negative = inhibition",Potency
Cc1ccc(/C=C(\C#N)C(=O)Nc2cccc(Br)c2)o1,inactive: 49.2%,–
Cc1ccc(Cl)cc1N1CCN(C(=O)c2cc3c(=O)oc4ccccc4c3s2)CC1,inactive: -17.1%,–
CCN1CCN(C(c2ccccc2Cl)c2c(O)cc(C)n(CCOC)c2=O)CC1 (stereo unspecified),inactive: -11.1%,–
CC1(C)CCC(C)(C)c2cc(NC(=O)c3ccc(C(=O)O)cc3)ccc21,inactive,–
CCCCn1c(=O)nc2n(-c3ccc(Br)cc3)c3ccccc3cc-2c1=O,inactive: 0.301%,–
Nc1nn(-c2ccccc2)nc1C(=O)OCc1ccccc1,inactive: 19.9%,–
CC1CCCN(CCCNC(=O)Cn2ncc3c([nH]c4ccccc43)c2=O)C1 (stereo unspecified),inactive: -3.05%,–
Cc1nc2ccc(S(=O)(=O)NCC(=O)Nc3ccc(F)cc3F)cc2s1,inactive: -11.3%,–
Cc1ccc(S(=O)(=O)N2CCN(Cc3nc4ccc(C)cc4o3)CC2)c(C)c1,inactive: -7.65%,–
N[C@@H](Cc1cc(I)c(Oc2cc(I)c(O)c(I)c2)c(I)c1)C(=O)O,inactive,–
CC(C)(C)C(=O)Nc1ccccc1C(=O)OCc1cc(=O)n2ccsc2n1,inactive: -8.91%,–
Cc1ccc(-n2c(SCC(=O)N3CCCc4ccccc43)nc3c([nH]c4ccccc43)c2=O)cc1,inactive: 13.1%,–
CCc1ccc(C2=CC(c3c(F)cccc3Cl)n3c(nc4ccccc43)N2)cc1 (stereo unspecified),inactive: -10.3%,–
CCOC(=O)c1c(C)[nH]c(C)c1S(=O)(=O)N(C)CC(=O)Nc1ccc(C)cc1Br,inactive: -31.3%,–
COCCCNC(=O)CSC1=Nc2ccccc2C2=NC(CCC(=O)NCc3ccc(OC)cc3)C(=O)N12 (stereo unspecified),inactive: -19.8%,–
Cc1ccc(-c2cn3ccc(C)cc3n2)cc1,inactive: -9.83%,–
CC(C)CCn1c(/C=C/c2ccccc2)nc2ccccc21,inactive: -14.3%,–
Cc1cc(C)cc(NC(=O)CSc2nc3nccnc3c(=O)n2CCc2c[nH]c3ccccc23)c1,inactive: -15.9%,–
CCOC(=O)Cn1c(=O)n(C2CCCCC2)c2nc(-c3c(F)cccc3Cl)nc(C(N)=O)c21,inactive: -39.7%,–
